Assay results published in paper PMC4336329 (PLoS ONE, 2015).
The campaign covered roughly 310,000 compounds. About 2,200 (0.71%) showed an effect of 50% or more. The effect is printed as a negative number. The list shows a part of the results.

biological target: human ether-à-go-go-related gene (hERG) potassium channel (human, UniProt Q12809); experiment: primary screen, population patch clamp on CHO cells stably expressing hERG
Sequence (Q12809 whole entry, looked up): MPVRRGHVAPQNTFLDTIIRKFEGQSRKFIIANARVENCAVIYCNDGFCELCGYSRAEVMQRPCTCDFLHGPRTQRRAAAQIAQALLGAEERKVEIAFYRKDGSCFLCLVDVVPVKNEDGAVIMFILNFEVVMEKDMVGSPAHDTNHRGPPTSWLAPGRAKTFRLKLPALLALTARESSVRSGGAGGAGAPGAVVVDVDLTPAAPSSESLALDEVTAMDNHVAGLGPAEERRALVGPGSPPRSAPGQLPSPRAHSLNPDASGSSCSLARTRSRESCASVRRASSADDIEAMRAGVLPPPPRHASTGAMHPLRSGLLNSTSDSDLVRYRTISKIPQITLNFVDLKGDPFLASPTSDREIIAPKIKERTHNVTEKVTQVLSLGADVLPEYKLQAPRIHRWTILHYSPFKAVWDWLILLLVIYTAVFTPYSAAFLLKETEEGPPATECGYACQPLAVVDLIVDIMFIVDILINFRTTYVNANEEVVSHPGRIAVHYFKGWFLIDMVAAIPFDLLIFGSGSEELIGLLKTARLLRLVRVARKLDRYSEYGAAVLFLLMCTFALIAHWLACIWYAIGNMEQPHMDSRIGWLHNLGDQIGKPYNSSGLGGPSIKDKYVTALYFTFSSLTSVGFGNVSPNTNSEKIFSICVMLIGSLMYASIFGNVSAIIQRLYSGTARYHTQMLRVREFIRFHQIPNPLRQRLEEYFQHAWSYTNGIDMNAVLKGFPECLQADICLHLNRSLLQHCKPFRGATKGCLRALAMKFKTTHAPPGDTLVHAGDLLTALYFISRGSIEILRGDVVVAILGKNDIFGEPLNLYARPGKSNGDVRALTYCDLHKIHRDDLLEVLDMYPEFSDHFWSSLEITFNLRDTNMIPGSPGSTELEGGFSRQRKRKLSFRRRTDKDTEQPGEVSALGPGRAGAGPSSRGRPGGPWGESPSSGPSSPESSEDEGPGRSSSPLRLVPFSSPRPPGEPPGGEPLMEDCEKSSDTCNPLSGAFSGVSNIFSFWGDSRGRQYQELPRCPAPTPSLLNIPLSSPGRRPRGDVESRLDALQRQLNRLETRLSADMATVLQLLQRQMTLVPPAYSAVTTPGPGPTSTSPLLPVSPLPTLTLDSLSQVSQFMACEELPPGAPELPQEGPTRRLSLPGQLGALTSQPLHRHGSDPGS

Structure (SMILES) | hERG current change (%, negative = inhibition) at 1uM [%]
CCCN1CCC(=O)N([C@H](CSc2ccc(C)cc2)c2ccccc2)CC1 | -76.3
COc1ccc(-n2cnc3cc(NCc4ccccn4)ccc32)cc1 | -4.42
C=C1C[C@@H]2[C@H](CC[C@]3(C)C(=O)CC[C@@H]23)[C@@]2(C)C=CC(=O)C=C12 | 6.42
Cc1cc(C(C)(C)C)ccc1OCCN1CCCC1 | -18.7
C(=N/n1c2ccccc2c2ccccc21)/c1ccco1 | 18.4
Cl.O=c1[nH]c(CN2CCCCC2)nc2ccccc12 | 11.6
CN(C)c1nc2n(c(=O)n1)CCS2 | 24.5
CCc1noc(C)c1C(=O)N1CCN(S(=O)(=O)c2ccc(C)cc2C)CC1 | -9.18
COc1ccc(NC(=O)CN2C(=O)CSC2=O)cc1 | 5.54
Cc1ccc(-c2nc3ccccn3c2Nc2ccccc2)o1 | 5.67
O=C(N/N=C/c1cccnc1)c1cc2c(ccc3ccccc32)o1 | 14.6
COc1ccc(Cl)cc1N=Cc1c(O)n(C)c(=O)n(C)c1=O | 8.58
N#Cc1c(C(F)(F)F)cc(-c2cccs2)nc1SC(C(=O)O)c1ccccc1 (stereo not drawn) | 12
CCSc1nc2c(c(=O)[nH]1)C(c1cccnc1)C(C(=O)OC(C)C)=C(C)N2 (stereo not drawn) | 2.8
O=C(Nc1ccc(S(=O)(=O)N2CCCC2)cc1)C1CCCN1C(=O)c1cccs1 (stereo not drawn) | 7.18
Cc1ccc(NC(=S)NNC(=O)c2cccc([N+](=O)[O-])c2)cc1Cl | 9.98
COC(=O)CCCC1=CC2=CC(=O)C(C)(OC(=O)c3cccs3)C(=O)C2=CN1CCCOC(C)C (stereo not drawn) | -0.424
COCc1cc(C)nc(OC)c1C(N)=O | 18.5
O=C(COC(=O)CC1CC2CCC1C2)Nc1ccc(Cl)c(S(=O)(=O)N2CCOCC2)c1 (stereo not drawn) | 8.43
CCCn1c(C)cc(C(=O)COC(=O)CN=C2NS(=O)(=O)c3ccccc32)c1C | 11.7
CCc1ccc(N=Nc2ccc(O)c3[nH]cnc23)cc1.[Cl-] | 11.9
CCN1C(=NCc2ccco2)N[C@@H](c2cccc(F)c2)C(C(=O)OC)=C1C | -1.29
CCN(CC)c1ccc(C=Nc2cccnc2Cl)c(O)c1 | 16.3

Structure (SMILES) | hERG current change (%, negative = inhibition) at 1uM [%]
Cc1nnc(SCC(=O)N2N=C(c3ccc(Cl)cc3)CC2c2ccco2)[nH]c1=O (stereo not drawn) | 9.72
Nc1c(C(=O)NC2CCCC2)c2nc3ccccc3nc2n1/N=C/c1ccco1 | -5.95
CCOC(=O)c1ccc(NS(=O)(=O)c2c(N)n(C)c(=O)n(C)c2=O)cc1 | 9.67
CC1CCCN(C(=O)c2cc(F)c(F)cc2Cl)C1 (stereo not drawn) | -17
CC(/C=N\N1CCN(c2ccc(Cl)cc2)CC1)=C\c1ccccc1 | 1.61
Cc1oncc1C(=O)NC1CCCCC1 | 18.3
CCOc1ccc2nc(NC(=O)CCn3cccc3)sc2c1 | 0.632
COC(=O)c1cc(OC)c(OC)cc1NCC(=O)Nc1cccc(C(F)(F)F)c1 | 16
CN(C)S(=O)(=O)N(CC(=O)N1CCN(c2ccccc2)CC1)c1ccccc1 | -1.69
O=C(CCc1ccccc1)Nc1nc2n(n1)C(c1ccccc1)CC(=O)N2 (stereo not drawn) | 13
Cc1cccc(C(=O)c2cccc(C)c2)c1 | 9.57
CC(=O)Nc1ccc(NC(=O)C(c2ccccc2)c2ccccc2)cc1 | 15.7
O=C1COc2ccc(S(=O)(=O)N3CCN(c4ccccc4)CC3)cc2N1 | 12.4
COc1ccc(C(CNC(=O)c2oc3ccc(OC)cc3c2C)N2CCCC2)cc1 (stereo not drawn) | -30.8
O=C(CSCc1nc2c(nnn2Cc2ccc(F)cc2)c(=O)[nH]1)Nc1cccc(C(F)(F)F)c1 | 12.7
CCOc1cc(N2CCOCC2)c(OCC)cc1NC(C)C(=O)N1CCC(C)CC1 (stereo not drawn) | 11.4
O=C(CSc1ccccc1)N1CCC(N2CCC(C(=O)N3CCCC3)CC2)CC1 | -4.77
COc1ccc(C(=O)N/N=C(\C)CC(=O)N2CCN(C=O)CC2)cc1 | 21.4
O=S(=O)(c1ccc(-c2ccccc2)cc1)N1CCOCC1 | 9.41
COc1ccc2sc(N(CCN(C)C)C(=O)c3cc(Cl)sc3Cl)nc2c1.Cl | 7.91
CC(=O)Nc1cc(C(=O)N2CCc3ccccc3C2)ccc1Sc1ccc(Cl)cc1 | 9.31
Cc1cc(C)nc(SCc2ccc(Cl)cc2)n1 | 15.1
O=C(Nc1ccccc1Cl)N1CCN(Cc2ccc3c(c2)OCO3)CC1 | 17

Structure (SMILES) | hERG current change (%, negative = inhibition) at 1uM [%]
Cc1ccc(S(=O)(=O)Nc2cc(C(=O)O)ccc2N2CCCCC2)cc1 | 8.52
Cc1cccc(-n2c(=O)[nH]c3c(C(N)=O)nc(CC(C)C)nc32)c1 | 11.6
Nc1nonc1-n1nnc(C(=O)N/N=C/c2c(Cl)cccc2Cl)c1CSC1=NCCS1 | 15.2
C/C(CC(=O)Nc1ccc2c(c1)OCCO2)=N\NC(=O)COc1cccc(C)c1 | 9.91
Cc1nc(N2CCN(c3ccccn3)CC2)c2c(C)c(C(=O)Nc3c(C)cc(Br)cc3C)sc2n1 | 16.8
O=C(NC(=S)NC1C2CC3CC(C2)CC1C3)C12CC3CC(CC(C3)C1)C2 (stereo not drawn) | 4.43
CC(C)CNC(=S)NNC(=O)c1csc2ccccc12 | 9.77
Cc1nn(C(=O)c2cccc([N+](=O)[O-])c2)c(C)c1Sc1ccccc1 | 11.4
O=S(=O)(c1ccccc1)N1CCN(c2ncnc3scc(-c4ccccc4)c23)CC1 | 18.5
COc1ccc(-c2cn(-c3ccccc3)nc2CO)cc1 | 7.87
CCCCCOc1ccc(C(=O)CCC(=O)N2CCCC2)cc1 | 9.37
CN(C)CCNC(=O)c1ccc(COc2ccc(Cl)cc2Cl)cc1 | -1.41
COc1ccc(C(=O)NC2CC3CCCC(C2)N3Cc2ccccc2)cc1 (stereo not drawn) | -15.7
COC(=O)c1ccc(COc2c(F)c(F)cc(F)c2F)o1 | 7.83
CC(=O)Oc1ccc(N2C(=O)C3C4C=CC(CO)(O4)C3C2=O)cc1 (stereo not drawn) | 12.7
O=C(NCc1ccccn1)C(=O)Nc1nc(C23CC4CC(CC(C4)C2)C3)cs1 | 6.89
CCn1cc(Br)c(C(=O)Nc2sc3c(c2C(N)=O)CCCC3)n1 | -6.66
CCOC(=O)N1CCN(CC(O)COc2ccccc2[N+](=O)[O-])CC1.Cl (stereo not drawn) | 11.7
COCCn1c(=NC(=O)c2ccccc2[N+](=O)[O-])sc2cc(S(C)(=O)=O)ccc21 | 9.08
COc1cc(=O)n(C)c2ccccc12 | 8.88
Cc1cc(N2CCCCC2)nc(-c2ccc(Br)cc2)n1 | 5.1
Cc1ccc(C(=O)c2coc3c2C(=O)C(=O)c2ccccc2-3)cc1 | 10
O=C(Nc1cc([N+](=O)[O-])ccc1O)c1cccc(NC(=O)c2ccco2)c1 | 17.2

Structure (SMILES) | hERG current change (%, negative = inhibition) at 1uM [%]
CC(C)(C)N1CC(C(=O)Nc2ccc(C#N)cc2)CC1=O (stereo not drawn) | 8.42
Cc1ccc(NC(=O)CN2CCN(C(=O)c3ccco3)CC2)cc1 | -1.3
O=C(NCc1ccccn1)Nc1cc(Cl)ccc1Cl | -8.51
O=C(CCn1cccn1)N1CCCC(N2CCN(c3cccc(C(F)(F)F)c3)CC2)C1 (stereo not drawn) | -1.1
Cn1c(CCNC(=O)C(C)(C)C)nc2ccccc21 | 13.8
COc1ccccc1NC(=S)NC(=O)c1ccc(-c2ccc(Cl)cc2)o1 | 2.74
O=C(COC(=O)Cc1ccccc1)NC12CC3CC(CC(C3)C1)C2 | 9.33
COc1ccccc1CNC(=O)c1nnc(Cc2ccc(Cl)cc2)o1 | 13.8
C/C=C(\C)C(=O)Nc1cccc(C2=NOC3(C2)C[C@@H](C(N)=O)N(C(=O)c2ccccc2C(=O)c2ccccc2)C3)c1 (stereo partly drawn) | 10.8
Cn1nc([N+](=O)[O-])nc1Sc1nnnn1-c1ccc(C(=O)O)cc1 | 8.97
Cn1c(=O)cc(SCC(=O)NCCCN2CCN(c3ccccc3F)CC2)c2ccccc21 | -6.98
O=C(Nc1cccc(Cl)c1)Nc1csc([N+](=O)[O-])c1 | 13.6
O=C(CCC1CCCCC1)Nc1ncn[nH]1 | 5.8
CCCSc1nnc(NC(=O)c2nc(SC)ncc2Cl)s1 | -6.11
C[C@@H](NC(=O)[C@@H]1Cc2ccccc2CN1)C(=O)NC1CCCCC1 | 12.5
C=CCn1c(N)c(C(=O)OCCC)c2nc3ccccc3nc21 | -18
CCOC(=O)C1=C(C)NC(=S)NC1c1ccco1 (stereo not drawn) | 13.7
O=C(NC1CCCCC1)c1ccc(CNc2ccccc2)o1 | 8.74
CCOC(=O)c1c(C)[nH]c(C)c1S(=O)(=O)N1CCCCC1 | 17.5
O=C(CN1C(=O)S/C(=C\c2ccc(F)cc2)C1=O)NCCCn1ccnc1 | -6.45
CC(C)(C)c1ccc(/C=C/C(=O)c2ccc(NC3=NCCCS3)cc2)cc1 | -4.53
